The list shows a part of the results. The full chains were built here from the parent and the listed change. Values near 0.05 are background.
B1: TEV protease; numbered along this chain (parent)
chain: MGESLFKGPRDYNPISSSICHLTNESDGHTTSLYGIGFGPFIITNKHLFRRNNGTLVVQSLHGVFKVKDTTTLQQHLVDGRDMIIIRMPKDFPPFPQKLKFREPQREERICLVTTNFQTKSMSSMVSDTSCTFPSGDGIFWKHWIQTKDGQCGSPLVSTRDGFIVGIHSASNFTNTNNYFTSVPKNFMELLTNQEAQQWVSGWRLNADSVLWGGHKVFMVKPEEPFQPVKEATQL

Variants of: B1
Experiment: raw area under fraction-flipped curve 0-4 h after induction (AUC4h, not background-subtracted), DNA-recorder readout of cleavage of the substrate (dimensionless); higher = more cleavage of the substrate by the protease variant
Conditions: temperature: 34 °C; time window: 0-4 h after rhamnose induction
Protocol: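 In vivo DNA recorder in E. coli TOP10(DE3) ΔrhaA at 34 °C. Each TEVp single-site mutant (parent TEVp 0) is paired with a single-site variant of the 7-mer TEVs (canonical ENLYFQ|S). The substrate sits between flexible linkers in a Bxb1-sfGFP-TEVs-SsrA fusion, so cleavage stabilises Bxb1 and speeds flipping of a recombination array, read by NGS. The value is the raw area under the fraction-flipped curve over 0-4 h after rhamnose induction (AUC4h), with ≥20 reads per time point. It is not background-subtracted; inactive controls average about 0.047.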
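Further: Bxb1 expression induced with 0.2% (w/v) L-rhamnose at OD600 near 0.5, cultures sampled hourly, flipped fraction per protease–substrate barcode pair counted by paired-end Illumina sequencing.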

Variant	area with substrate ENLYAQS	area with substrate ENLYCQS	area with substrate ENLYDQS	area with substrate ENLYEQS	area with substrate ENLYGQS	area with substrate ENLYHQS	area with substrate ENLYIQS	area with substrate ENLYKQS	area with substrate ENLYNQS	area with substrate ENLYPQS	area with substrate ENLYQQS	area with substrate ENLYRQS	area with substrate ENLYWQS	area with substrate ENLYSQS	area with substrate ENLYTQS	area with substrate ENLYVQS	area with substrate ENLYLQS	area with substrate ENLYMQS	area with substrate ENLYYQS
MGESLFKGPRDYNPISSSICHLTNESDGHTTSLYGIGFGPFIITNKHLFRRNNGTLVVQSLHGVNKVKDTTTLQQHLVDGRDMIIIRMPKDFPPFPQKLKFREPQREERICLVTTNFQTKSMSSMVSDTSCTFPSGDGIFWKHWIQTKDGQCGSPLVSTRDGFIVGIHSASNFTNTNNYFTSVPKNFMELLTNQEAQQWVSGWRLNADSVLWGGHKVFMVKPEEPFQPVKEATQL [F65N]	0.0741	0.0708	0.0523	0.129	0.0645	0.0826	0.13	0.0613	0.0675	0.0703	0.0614	0.0606	0.071	–	–	–	–	–	–
MGESLFKGPRDYNPISSSICHLTNESDGHTTSLYGIGFGPFIITNKHLFRRNNGTLVVQSLHGVFKVKDTTTLQQHLVDGRDMIIIRMPKDFPPFPQKLKFREPQREERICLVTTNFQTKSMSSMVLDTSCTFPSGDGIFWKHWIQTKDGQCGSPLVSTRDGFIVGIHSASNFTNTNNYFTSVPKNFMELLTNQEAQQWVSGWRLNADSVLWGGHKVFMVKPEEPFQPVKEATQL [S127L]	0.0824	–	–	0.0907	0.0669	0.059	0.13	0.0653	–	0.0665	0.112	–	0.111	0.0719	0.0642	0.1	–	–	–
MGESLFKGPRDYNPISSSICHLTNESDGHTTSLYGIGFGPFIITNKHLFRRNNGTLVVQSLHGVFKVKDTTTLQQHLVDGRDMIIIRMPKDFPPFPQKLKFREPQREERICLVTTNFQTKSMSSMVIDTSCTFPSGDGIFWKHWIQTKDGQCGSPLVSTRDGFIVGIHSASNFTNTNNYFTSVPKNFMELLTNQEAQQWVSGWRLNADSVLWGGHKVFMVKPEEPFQPVKEATQL [S127I]	0.0987	–	–	0.0714	0.0633	0.078	0.167	0.0485	0.0724	0.0748	–	0.063	–	0.0726	0.0815	0.0736	0.0801	0.0994	0.0604
MGESLFKGPRDYNPISSSICHLTNESDGHTTSLYGIGFGPFIITNKHLFRRNNGTLVVQSLHGVFKVKDTTTLQQHLVDGRDMIIIRMPKDFPPFPQKLKFREPQREERICLVTTNFQTKSMSSMVSDTSCTFPSGDGIFWKHWIQTKDGYCGSPLVSTRDGFIVGIHSASNFTNTNNYFTSVPKNFMELLTNQEAQQWVSGWRLNADSVLWGGHKVFMVKPEEPFQPVKEATQL [Q151Y]	0.0764	–	0.064	0.0425	0.0615	0.0764	0.0776	0.0732	0.0697	0.0594	–	0.0763	0.0603	–	0.0715	0.0903	–	0.068	0.0623
MGESLFKGPRDYNPISSSICHLTNESDGHTTSLYGIGFGPFIITNKHLFRRNNGTLVVQSLHGVFKVKDTTTLQQHLVDGRDMIIIRMPKDFPPFPQKLKFREPQREERICLVTTNFQTKSMSSMVSDTSCTFPSGDGIFWKHWIQTKDGQCGSPLVSTRDGFIVGIHSASNFTNTNNYFTSVPKNFMELLTNQEAQQWVSGWRLNADSVLWGGHKVFMGKPEEPFQPVKEATQL [V220G]	0.0721	0.095	–	0.0756	0.0665	–	0.104	0.0585	0.0675	0.069	–	0.0575	0.086	0.0689	–	0.132	–	0.0829	0.0673
MGESLFKGPRDYNPISSSIWHLTNESDGHTTSLYGIGFGPFIITNKHLFRRNNGTLVVQSLHGVFKVKDTTTLQQHLVDGRDMIIIRMPKDFPPFPQKLKFREPQREERICLVTTNFQTKSMSSMVSDTSCTFPSGDGIFWKHWIQTKDGQCGSPLVSTRDGFIVGIHSASNFTNTNNYFTSVPKNFMELLTNQEAQQWVSGWRLNADSVLWGGHKVFMVKPEEPFQPVKEATQL [C20W]	0.0458	–	0.0499	0.042	0.0251	0.0377	0.0459	0.0311	0.0365	–	0.0428	–	0.0172	0.0441	0.0336	0.0543	–	0.0397	0.0435
MGESLFKGPRDYNPISSSICHLTNESDGHTTSLYGIGFGPFIITNKHLFRRNNGTLVVQSLHGVFKVKDTTTLQQHLVDGRDMIIIRMPKDFPPFPQKLKFREPQREERICLVTTNFQTKSMSSMVSDTSCTFPSGDGIFWKHWIQTKDGQCGSPLVSTRDGFIPGIHSASNFTNTNNYFTSVPKNFMELLTNQEAQQWVSGWRLNADSVLWGGHKVFMVKPEEPFQPVKEATQL [V165P]	0.071	0.0572	0.0838	0.0497	0.0724	0.0465	0.0651	0.0587	0.0507	0.0458	0.0737	–	0.0528	–	0.0622	0.0495	–	0.0813	–
MGESLFKGPRDYNPISSSICHLTNESDGHTTSLYGIGFGPFIITNKHLFRRNNGTLVVQSLHGVFKVKDTTTLQQHLVDGRDMIIIRMPKDFPPFPQKLKFREPQREERICLVTTNFQTKSMSSMVSDTSCTFPSGDGIFWKHWIQTKDGQCGSPLVSTRDGFIVGIHSASNFTNTNNYFTSVPKNFMELLTNQEAVQWVSGWRLNADSVLWGGHKVFMVKPEEPFQPVKEATQL [Q197V]	0.0766	–	–	0.0686	0.0584	0.0526	–	0.0613	0.0761	–	–	0.0557	–	0.0619	0.115	0.16	–	0.0804	0.0718
MGESLFKGPRDYNPISSSICHLTNESDGHTTSLYGIGFLPFIITNKHLFRRNNGTLVVQSLHGVFKVKDTTTLQQHLVDGRDMIIIRMPKDFPPFPQKLKFREPQREERICLVTTNFQTKSMSSMVSDTSCTFPSGDGIFWKHWIQTKDGQCGSPLVSTRDGFIVGIHSASNFTNTNNYFTSVPKNFMELLTNQEAQQWVSGWRLNADSVLWGGHKVFMVKPEEPFQPVKEATQL [G39L]	0.0497	–	–	0.0589	0.0411	0.0449	0.0437	0.0385	0.0382	0.0415	–	0.0469	0.0284	0.0424	0.0375	–	0.0346	0.0506	–

Reference: the supplement of paper PMC12217912
